Hit rate of the full screen: of about 420,000 compounds, about 50,000 (12%) were called active. This list was built around the results that the source calls inconclusive (neither active nor inactive); the mix of calls is not that of the screen. Calls follow the shape of the dose curve; as a rule, active = well fitted inhibition curve with a large enough effect; inconclusive = small, poorly fitted or top-dose-only effect; inactive = flat fitted curve, though single readings scatter. No potency is given beside an inconclusive call; the fits are too rough.
Experiment: qHTS for Inhibitors of human tyrosyl-DNA phosphodiesterase 1 (TDP1): qHTS in cells in presence of CPT; also: nearly all actives have a fitted effect of over 55% in size
Settings: chicken DT40 Tdp1-/-;hTDP1 cells + 20 nM CPT, ATP luminescence, 48 h; activity change, negative = growth inhibition: at 46.2 µM (top of the series) unless noted
Procedure, shortened: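 Chicken DT40 Tdp1-/- cells stably complemented with human TDP1 were seeded at 400 cells/well in medium containing 20 nM camptothecin, exposed to pin-transferred compounds, and grown at 37 °C for at least 48 hr. Viability was read as ATP luminescence.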
% is scaled to controls: 0 for no effect and ±100 for the full control effect; potency is read from the fitted curve at half-maximal effect; tags tell the direction and shape of the fitted curve.

| Compound | Potency | activity change, negative = growth inhibition |
| --- | --- | --- |
| CCCS(=O)(=O)c1c(S(=O)(=O)CCC)c2ccc(C(N)=O)cn2c1C(=O)c1ccc(OC)cc1 | inactive | – |
| CCOc1ccc(/C(O)=C2\C(=O)C(=O)N(c3cc(C)on3)C2c2ccccc2OC)cc1 (stereo not drawn) | inactive | – |
| COc1ccc(C(O)c2nc(-c3ccncc3)cs2)cc1 (stereo not drawn) | active: 18.4 µM | – |
| COc1cc(NC(=O)[C@H](C)NC(=O)N2CCn3c2nc2ccccc23)cc(OC)c1 | inconclusive [inhibitor, single point] | – |
| CCN(CC)C(=O)CSc1nc(N)c(C#N)c(-c2cccs2)c1C#N | inactive | – |
| C/C(N)=C(/C#N)C(=O)COC(=O)c1oc2ccccc2c1COC(C)C | inconclusive [inhibitor, partial curve, poor fit] | – |
| Cn1nc([N+](=O)[O-])c(C(C#N)c2ccccn2)c(Cl)c1=O (stereo not drawn) | active: 5.17 µM | – |
| CCCc1nn2c(=O)cc(CSCC(=O)Nc3nnc(C(C)C)s3)nc2s1 | inactive | – |
| COCCCNc1ncnc2sc(C(=O)N3CCOCC3)c(C)c12 | inactive | – |
| Cc1cc(C)cc(S(=O)(=O)c2cnc3ccccc3n2)c1 | inconclusive [inhibitor, single point] | – |
| CCN(CC(=O)Nc1c(C(=O)OC)[nH]c2ccccc12)c1ccc2c(c1)OCO2 | inconclusive [inhibitor, single point] | – |
| Cc1ccc(Cc2nc(-c3ccncc3)no2)cc1 | inconclusive [inhibitor, single point] | – |
| CCOC(=O)C1=C(C)NC(=O)NC1c1ccc(NC(C)=O)cc1 (stereo not drawn) | inactive | – |
| O=C(Nc1ccc2ccccc2c1)c1ccccc1Cl | inconclusive [inhibitor, single point] | – |
| CC(=O)c1c(C(C)=O)c(C)n(Cc2ccc(Cl)cc2)c1C | active: 16.4 µM | – |
| COc1ccc(N2CCN(C(=O)c3c(C)oc4nc(C)nc(N5CCCC5)c34)CC2)cc1 | inactive | – |
| C=CCN(c1ccccc1)S(=O)(=O)c1cccc(C(=O)N2CC(C)CC(C)C2)c1 (stereo not drawn) | active: 9.2 µM | – |
| NNC(=O)c1sc2cc(C(F)(F)F)cnc2c1-c1cccnc1 | inactive | – |
| COC(=O)c1cc2ccccc2c(-c2c(OC)c(C(=O)OC)cc3ccccc23)c1OC | inconclusive [inhibitor, single point] | – |
| O=C(Cc1ccc(NC2=NC3CS(=O)(=O)CC3S2)cc1)NCc1ccccc1Cl (stereo not drawn) | inactive | – |
| CCCS(=O)(=O)N1CCCC(C(=O)NCCCN2CCN(c3cccc(Cl)c3)CC2)C1 (stereo not drawn) | inconclusive [inhibitor, single point] | – |
| COc1ccc(CCNC(=O)c2cc3sccc3n2C)cc1OC | inconclusive [inhibitor, single point] | – |
| C=CCn1c(NCc2cc(Cl)ccc2O)nc2ccccc21 | inconclusive [inhibitor, single point] | – |
| COc1ccc(N2CCN(CCCNC(=O)CCC(=O)N3CCOc4ccc(Cl)cc43)CC2)cc1 | inconclusive [inhibitor, single point] | – |
| COc1ccccc1N(C)S(=O)(=O)c1ccc(C)c(C(=O)NC(C)c2ccccn2)c1 (stereo not drawn) | inconclusive [inhibitor, partial curve] | – |

| Compound | Potency | activity change, negative = growth inhibition |
| --- | --- | --- |
| COc1ccc(NC(=O)C2CCCN2C(=O)NCc2ccccc2)cc1 (stereo not drawn) | inconclusive [inhibitor, single point] | – |
| O=C(NCc1ccccn1)c1ccc(Cn2c(=S)[nH]c3ccccc3c2=O)cc1 | inactive | – |
| Cc1ccc(NC(=O)CNc2ccccc2N2CCCC2=O)cc1S(=O)(=O)N1CCOCC1 | inconclusive [inhibitor, single point] | – |
| O=C(Cc1ccc(Br)cc1)NO | inconclusive [inhibitor, single point] | – |
| COc1ccc(-c2nc(C#N)c(N3CCC(C(N)=O)CC3)o2)cc1 | inactive | – |
| Cc1ccc(N(Cc2ccccc2)C(=O)c2cc(S(=O)(=O)N3CCOCC3)ccc2Cl)cc1 | active: 11.6 µM | – |
| O=Cc1cn(-c2ccccc2)nc1-c1ccccc1 | inconclusive [inhibitor, single point] | – |
| CCN1C(=O)C(CC(=O)NCCc2ccccc2)N(NC(=O)c2ccc(Br)cc2)C1=S (stereo not drawn) | inconclusive [inhibitor, single point] | – |
| OCCCCNCc1cc(Br)ccc1OCc1ccccc1 | inconclusive [inhibitor, single point] | – |
| O=C(Nc1ccc(F)cc1)c1ccc(S(=O)(=O)NCC2CCCO2)cc1 (stereo not drawn) | active: 18.4 µM | – |
| Cc1ccccc1-c1nnc(SCC(=O)N2CCCc3ccccc32)o1 | inconclusive [inhibitor, single point] | – |
| CC1Cc2cc(S(=O)(=O)CCC(=O)N3CCN(c4ccccc4)CC3)ccc2N1C(=O)C1CC1 (stereo not drawn) | inconclusive [inhibitor, single point] | – |
| CC[N+](CC)(CC)CCOc1ccc(/C=C\c2ccccc2)cc1 | active: 2.66 µM | – |
| CC(C)(O)C#Cc1ccc(C(=O)N2CCCC2C(=O)O)s1 (stereo not drawn) | inactive | – |
| Cc1cn(CCOc2ccc(Cl)cc2)c(=O)[nH]c1=O | inactive | – |
| CCOc1ccc(OCc2ccc(C(=O)Nc3ccc(Cl)cn3)o2)cc1 | – | inconclusive: -33.7% [inhibitor] |
| CCN(CC)S(=O)(=O)c1cccc(C(=O)Nc2ccccc2)c1 | active: 20.6 µM | – |
| CCOC(=O)c1c(CCl)nc2ccccc2c1-c1ccccc1 | active: 13 µM | – |
| NCC1OC(n2cnc3c(=O)[nH]c(N)nc32)C(O)C1O (stereo not drawn) | inactive | – |
| CC(=O)N1N=C(c2ccc(Br)cc2)OC1(C)CC(=O)Nc1ccccc1 (stereo not drawn) | inactive | – |
| COc1ccc(-c2oc(NC(=O)CSc3nncn3C)c(C#N)c2-c2ccc(OC)cc2)cc1 | inconclusive [inhibitor, single point] | – |
| Cc1nc(-c2ccc(S(=O)(=O)Nc3ccc(OC(F)(F)F)cc3)cc2)co1 | inconclusive [inhibitor, single point] | – |
| Cc1ccc(NC(=O)N2CCC(CN3CCCCCC3)CC2)c(Cl)c1 | inconclusive [inhibitor, single point] | – |
| O=C(C1CCN(S(=O)(=O)c2ccccc2)CC1)N1CCC1 | inactive | – |
| N#CCc1nc2ccccc2c(=O)[nH]1 | inactive | – |

| Compound | Potency | activity change, negative = growth inhibition |
| --- | --- | --- |
| COc1cc(OC)cc(C(=O)Nc2ccc(N3CCOCC3)cc2N2CCOCC2)c1 | inactive | – |
| CCOC(=O)C1(C)CCCN(C(=O)c2cccc(C(F)(F)F)c2)C1 (stereo not drawn) | inconclusive [inhibitor, single point] | – |
| O=C1Nc2ccccc2/C1=C/c1ccnc2ccccc12 | inconclusive [inhibitor, single point] | – |
| O=C1c2ccccc2C(=O)C1(c1ccccc1)N1CCN(c2cccc(C(F)(F)F)c2)CC1 | inconclusive [inhibitor, single point] | – |
| CCC(O)C1CCN(Cc2cn(Cc3ccccc3)nc2-c2cc3ccccc3o2)CC1 (stereo not drawn) | inconclusive [inhibitor, single point] | – |
| CCOc1ccccc1NC(=O)CCc1nc(-c2cccc(C)c2)no1 | inconclusive [inhibitor, single point] | – |
| COc1cc(CN(CC(C)C)S(=O)(=O)c2ccccc2Br)cc(OC)c1 | inconclusive [inhibitor, partial curve, poor fit] | – |
| Cc1ccccc1OCC(O)Cn1c(NCc2ccccc2)nc2c1c(=O)[nH]c(=O)n2C (stereo not drawn) | inconclusive [inhibitor, single point] | – |
| COC(=O)c1[nH]c2c(c1C)C(=O)CC(c1ccc(OC)c(OC)c1)C2 (stereo not drawn) | inconclusive [inhibitor, single point] | – |
| COc1cc(CNc2ccc3[nH]c(=O)[nH]c3c2)ccc1OCc1ccc(C)cc1 | inconclusive [inhibitor, single point] | – |
| CCN(c1ccccc1C(=O)O)S(=O)(=O)c1ccc2[nH]c(=O)[nH]c2c1 | inactive | – |
| CC(C)(C)OC(=O)NCC1CCC(C(=O)NC[C@H](CC(=O)O)c2ccc(Cl)cc2)CC1 (stereo partly drawn) | inactive | – |
| Cc1nc2nncn2c(Nc2ccc(F)cc2)c1C | active: 16.4 µM | – |
| COc1ccc(Cl)cc1NC(=O)c1cc2ccccn2n1 | inactive | – |
| CC(=O)Nc1sc(C)c(C)c1C(=O)OCC(=O)N(Cc1ccccc1)C(C)C | inconclusive [inhibitor, single point] | – |
| NS(=O)(=O)c1ccc(CNC(=O)c2cc(=O)[nH]c3ccccc23)cc1 | inactive | – |
| O=C(N/N=C/c1cccnc1)c1cc(-c2ccc(Cl)cc2)nc2ccccc12 | inconclusive [inhibitor, partial curve, poor fit] | – |
| CCN(CC)C(=O)Cn1cc(C(=O)C(=O)N(CC)C2CCCCC2)c2ccccc21 | inconclusive [inhibitor, single point] | – |
| O=C(NCCCN1CCOCC1)c1ccc2c(c1)N(Cc1cccc(Cl)c1)C(=O)c1ccccc1S2=O (stereo not drawn) | inconclusive [inhibitor, single point] | – |
| Cc1noc2ncnc(Sc3c(Cl)cccc3Cl)c12 | active: 18.4 µM | – |
| CN(Cc1nc2ccccc2c(=O)[nH]1)C(=O)COc1ccccc1Cc1ccccc1 | inconclusive [inhibitor, single point] | – |
| CCCCN(C=O)c1c(CC)nc2c(OCc3ccccc3C)cccn12 | active: 14.6 µM | – |
| O=C(C[C@H]1CC[C@H]2[C@@H](COC[C@@H](O)CN2C(=O)c2cnccn2)O1)NCc1ccc(Oc2ccccc2)cc1 | inconclusive [inhibitor, single point] | – |
